Data taken from the antibiotic and cytotoxicity screens of Wong et al. (2023).
The list shows a part of the results.

Assays:
[1] = system: HSkMC (human skeletal muscle cells); test: cytotoxicity call (relative viability < 0.9); conditions: 10 µM
[2] = system: HepG2; test: cytotoxicity call (relative viability < 0.9); conditions: 10 µM
[3] = system: S. aureus RN4220; test: growth inhibition call (relative growth <= 0.2); conditions: 50 µM

COc1ccccc1C#Cc1cnc2c(c1)C(=O)N([C@H](C)CO)C[C@@H](C)[C@@H](CN(C)C(=O)c1ccc3c(c1)OCO3)O2
inactive: cytotoxicity call [1] | cytotoxicity call [2] | growth inhibition call [3]

Cc1noc(C)c1NC(=O)N(C)C[C@H]1OCCCC[C@H](C)Oc2ccc(NC(=O)Cc3ccccc3)cc2C(=O)N([C@H](C)CO)C[C@@H]1C
inactive: cytotoxicity call [1] | cytotoxicity call [2] | growth inhibition call [3]

C[C@@H]1CN([C@@H](C)CO)C(=O)CCCn2cc(nn2)CO[C@@H]1CN(C)S(=O)(=O)c1cccc(C#N)c1
inactive: cytotoxicity call [1] | cytotoxicity call [2] | growth inhibition call [3]

C[C@H](O)C#Cc1ccc2c(c1)O[C@H](CN(C)C(=O)Cc1ccccn1)[C@H](C)CN([C@@H](C)CO)S2(=O)=O
inactive: cytotoxicity call [1] | cytotoxicity call [2] | growth inhibition call [3]

C[C@@H]1CN([C@@H](C)CO)C(=O)Cc2cc(NS(C)(=O)=O)ccc2O[C@H]1CN(C)C(=O)Nc1ccc(C(F)(F)F)cc1
inactive: cytotoxicity call [1] | cytotoxicity call [2] | growth inhibition call [3]

COc1ccc2c3c(n(c2c1)C)[C@H](CO)N(C[C@]13CCN(CC1)C(=O)c1cnccn1)C(=O)c1cnccn1
inactive: cytotoxicity call [1] | cytotoxicity call [2] | growth inhibition call [3]

C[C@H]1CCCCO[C@@H](CN(C)C(=O)NC2CCCCC2)[C@@H](C)CN([C@@H](C)CO)C(=O)c2cc(NC(=O)c3ccncc3)ccc2O1
inactive: cytotoxicity call [1] | cytotoxicity call [2] | growth inhibition call [3]

COc1ccc(NC(=O)N(C)C[C@@H]2Oc3ncc(C#C[C@@H](C)O)cc3C(=O)N([C@@H](C)CO)C[C@@H]2C)cc1
inactive: cytotoxicity call [1] | cytotoxicity call [2] | growth inhibition call [3]

C[C@H]1CN([C@@H](C)CO)C(=O)Cc2cc(NC(=O)CCCCCC(=O)Nc3ccccc3N)ccc2O[C@H]1CN(C)S(C)(=O)=O
inactive: cytotoxicity call [1] | cytotoxicity call [2] | growth inhibition call [3]

COc1ccc(NC(=O)Nc2ccc3c(c2)CC(=O)N([C@H](C)CO)C[C@H](C)[C@@H](CN(C)CC2CCCCC2)O3)cc1
inactive: cytotoxicity call [1] | cytotoxicity call [2] | growth inhibition call [3]

C[C@H](CO)N1C[C@H](C)[C@H](CN(C)Cc2ccc(Cl)c(Cl)c2)OCCCC[C@H](C)Oc2ccc(NS(C)(=O)=O)cc2C1=O
inactive: cytotoxicity call [1] | cytotoxicity call [2] | growth inhibition call [3]
